Measured values from the supplement of paper PMC3334620.
In all, about 33,000 sequences were measured (“E-score (-0.5 to 0.5)”: median about -0.01, highest 2% from about 0.26 on). This is one part of the list.

molecular target: Ste12 (UniProt P13574); assay: PBM E-score (8-mer binding enrichment) (E-score (-0.5 to 0.5)); higher = stronger / more preferred TF binding; most listed sequences are background and not binding sites; details: protein concentration: 200 nM; construct: GST-DNA-binding domain
Procedure: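 Universal 'all 10-mer' protein binding microarrays (Agilent AMADID 015681) probed with GST-tagged S. cerevisiae TFs (full-length or DBD) made by in vitro transcription/translation (PURExpress), about 100-200 nM. Bound TF was detected with fluorescent anti-GST. Each ungapped 8-mer (which stands for itself and its reverse complement) is scored by the PBM enrichment score (E-score), a modified Wilcoxon-Mann-Whitney statistic from -0.5 to +0.5, computed with the Universal PBM Analysis Suite. Scale: above 0.35 generally sequence-specific binding.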

| Sequence | PBM E-score |
| --- | --- |
| AATGGCAA | 0.129 |
| AGACGCTA | -0.171 |
| CCCGCCTC | 0.0992 |
| CCCGGAAG | 0.0329 |
| CATAGAGA | -0.0324 |
| CCGGACAG | 0.0528 |
| ACCACCGC | -0.093 |
| CAATTACA | 0.146 |
| CTGTACAC | 0.0482 |
| ACGTTCAC | -0.214 |
| ACTATAGC | -0.0742 |
| CGGAAATC | 0.0175 |
| CCAGATGG | -0.0216 |
| CCATCTAC | -0.125 |
| CTCGACGC | 0.0498 |
| TAAGATTA | 0.0386 |
| CCCTTATC | -0.129 |
| TAGGTCGA | -0.00032 |
| GACAACGA | -0.133 |
| ATCAATAC | -0.00457 |
| GAGATGCC | -0.115 |
| ATAGTGGA | -0.155 |
| CATCGTGA | -0.0559 |
| CGTTCGTC | -0.0659 |

| Sequence | PBM E-score |
| --- | --- |
| CTGTGAAC | -0.0759 |
| CTTTAGCC | -0.029 |
| GGCCCCTA | -0.0347 |
| ACTCACTA | 0.0226 |
| ATCGGCAG | -0.0528 |
| GTAGGCTA | -0.298 |
| ATACAACA | 0.0533 |
| ACAAACGG | 0.116 |
| AGAGCTCC | -0.148 |
| AAGTGGGT | 0.08 |
| ACCAACGT | -0.0825 |
| CGTGAAGC | -0.228 |
| TGAGGAAA | 0.0852 |
| AAGCGCGT | 0.00023 |
| AAGAGTAG | -0.0605 |
| ACATTCGC | -0.00727 |
| CCGGACCC | 0.0177 |
| CAGTTAAG | 0.041 |
| ACGGCTAC | -0.102 |
| AGTTTCAG | 0.464 |
| ACCGGTCT | -0.154 |
| AAGGACGC | -0.199 |
| ATGAAAAA | 0.305 |
| ATCTACAA | -0.00908 |

| Sequence | PBM E-score |
| --- | --- |
| CACCATGG | -0.171 |
| GTAATCTA | 0.118 |
| ACGCGCTC | -0.0293 |
| TGCTATAA | -0.0901 |
| AATAAATT | 0.191 |
| ACATGCGC | 0.0319 |
| AAGGGGAC | -0.199 |
| CACATGCA | -0.0548 |
| AAGTGGAC | -0.011 |
| ATAGTGAG | 0.059 |
| CCCTGTCG | -0.0419 |
| AGCCTAAA | -0.0349 |
| ATCAGGTA | 0.144 |
| GTAAGTAA | 0.0614 |
| CGAGTAGC | -0.0814 |
| GTAGATCA | 0.023 |
| GAGATAAC | 0.0702 |
| ATAGAGAC | -0.025 |
| ATACAGAC | 0.0198 |
| TACCTGGA | -0.0387 |
| AGCTTCAC | -0.269 |
| CTTATTCC | -0.0244 |
| CGGCGACC | -0.0757 |
| ACTTAACC | 0.00417 |

| Sequence | PBM E-score |
| --- | --- |
| GAGCTCCC | -0.0992 |
| ATCAGGAG | 0.0409 |
| AGCGCCAC | -0.0709 |
| AAAAGATC | 0.108 |
| TGAAGTAA | 0.124 |
| GGTCGTAA | -0.0195 |
| ACTCTCTG | -0.104 |
| ATTTGTTC | 0.266 |
| CGCACGCC | -0.00703 |
| AGGATTAG | -0.034 |
| AAGGTGCG | -0.186 |
| CCGGGACA | 0.114 |
| GCTGTACC | -0.0864 |
| ACTCAGAA | 0.156 |
| AGGTTAAT | 0.0966 |
| AACGAGGG | 0.0911 |
| CTTATCTC | 0.0842 |
| CAGACCTG | -0.146 |
| AAAGCAGT | 0.19 |
| GAGACAAC | 0.0366 |
| AGCTTACC | -0.0898 |
| CCATCATA | -0.00778 |
